Series [1] concerns Extracellular matrix (BD Matrigel Basement Membrane Matrix). Kind of series: Amount of antibody binding to the extracellular matrix by the ECL method. The settings on record: antibody 3 μg/mL, pH 7.4 (FIG. 23). As to the method:
Extracellular matrix (the BD Matrigel Basement Membrane Matrix/manufactured by BD) was diluted to 2 mg/mL using TBS (Takara, T903). The diluted extracellular matrix was dispensed into the MULTI-ARRAY 96 well Plate, High bind, Bare (manufactured by Meso Scale Discovery: MSD) at 5 μL per well, and immobilized overnight at 4° C. Then, blocking was performed using 20 mM ACES buffer (pH 7.4) containing 150 mM NaCl, 0.05% Tween20, 0.5% BSA, and 0.01% NaN3.
The antibodies to be evaluated were prepared as follows. The antibody samples to be added alone were prepared by diluting each antibody to 9 μg/mL using Buffer-1 shown below, and then further diluting them using Buffer-2 to a final concentration of 3 μg/mL. Buffer-1: 20 mM ACES buffer containing 150 mM NaCl, 0.05% Tween20, and 0.01% NaN3, at pH 7.4 Buffer-2: 20 mM ACES buffer containing 150 mM NaCl, 0.05% Tween20, 0.1% BSA, and 0.01% NaN3, at pH 7.4 […]
Next, solutions of the antibody alone or the complex were added to the plate from which the blocking solution had been removed, and this was shaken at room temperature for one hour. […] The antibody for ECL detection was removed, a solution produced by 2-fold dilution of the MSD Read Buffer T (4×) (manufactured by MSD) using ultrapure water was added, and then the amount of luminescence was measured by SECTOR Imager 2400 (manufactured by MSD).

For series [2], the target named is human IL-8 (Homo sapiens, UniProt P10145). The series can be described thus: Mouse PK assay: human IL-8 elimination after simultaneous administration of human IL-8 and anti-human IL-8 antibody. The class given is in vivo, mice (C57BL/6J). The settings on record: mice, antibody 2 mg/kg with human IL-8. As to the method: After simultaneous administration of human IL-8 and anti-human IL-8 antibodies to mice (C57BL/6J, Charles river), pharmacokinetics of human IL-8 were evaluated. A mixed solution of human IL-8 and an anti-human IL-8 antibody (10 μg/mL and 200 μg/mL, respectively) was administered in a single dose at 10 mL/kg to the tail vein. […] Blood was collected five minutes, two hours, four hours, seven hours, one day, two days, three days, seven days, 14 days, 21 days, and 28 days after the administration. The collected blood was immediately centrifuged at 15,000 rpm and 4° C. for 15 minutes to obtain plasma. The separated plasma was stored in a freezer set at −20° C. or below until measurements were taken.
The human IL-8 concentration in mouse plasma was determined by an electrochemiluminescence method. First, an anti-human IL-8 antibody (prepared in-house) having a mouse IgG constant region was dispensed into a MULTI-ARRAY 96-well Plate (Meso Scale Discovery), and was allowed to stand at room temperature for one hour. Then, a PBS-Tween solution containing 5% BSA (w/v) was used for blocking at room temperature for two hours to prepare an anti-human IL-8 antibody-immobilized plate. […] The human IL-8 concentration was calculated based on the response in the calibration curve using the analytical software, SOFT Max PRO (Molecular Devices). […]

Sequence of human IL-8 (P10145 23-99 limits assumed): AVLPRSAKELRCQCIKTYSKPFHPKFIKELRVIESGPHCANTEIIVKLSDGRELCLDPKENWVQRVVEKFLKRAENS

B1: H1009/L395: pH-dependent IL-8-binding antibody, H1009-IgG1m (SEQ ID NO:48) heavy chain, L395-kOMT light chain (antibody)
heavy: QVQLVESGGGLVQPGGSLRLSCAASGFTFSDYYLSWVRQAPGKGLEWVGLIRNKDNYHTPEYSASVKGRFTISRDDSKNSLYLTMSDLKTEDTAVYYCARENHRYDVELAYWGQGTLVTVSS[human IgG1 constant region skipped]
light: DIQMTQSPSSLSASVGDRVTITCRASEIIYSYLAWYQQKPGKAPKLLIYKAKTHADGVPSRFSGSGSGTDFTFTISSLQPEDIATYYCKHHFGFPRTFGQGTKVEIKRTVAAPSVFIFPPSDEQLKSGTASVVCLLNNFYPREAKVQWKVDNALQSGNSQESVTEQDSKDSTYSLSSTLTLSKADYEKHKVYACEVTHQGLSSPVTKSFNRGEC
B1: the “binding to the extracellular matrix, complex with human IL-8 (+hIL8)” value in series [1] (human IL-8 at ten times the molar concentration) is “bound to the extracellular matrix upon complex formation with human IL-8”. In addition, the “binding to the extracellular matrix, antibody alone (−IL8)” value in series [1] is “hardly showed any binding to the extracellular matrix as the antibody alone”. Besides, the “rate of human IL-8 elimination (CL) as compared to H998/L63” value in series [2] was “approximately 30 fold”.

The values are drawn from US20240083996A1, “COMPOSITION FOR PROPHYLAXIS OR TREATMENT OF IL-8 RELATED DISEASES” (Chugai Seiyaku Kabushiki Kaisha, priority 2016, published 2024).
